Reference: PMC5092051
Positions count from the first letter of the chain named. Read-outs that look alike come from different tables or passages of the source. These are yes or no findings as the source states them, for the method shown. In cells and extracts the contact can be indirect. Some results given as binding are weak or reduced against the parent protein; the word gives no strength. Tags and fused reporters may be left off the sequences shown. Values belong to the molecule of their own block, whether it stands above or below them.

Chains of the proteins cited; added tags and fusions are not shown.
UniProt Q15370: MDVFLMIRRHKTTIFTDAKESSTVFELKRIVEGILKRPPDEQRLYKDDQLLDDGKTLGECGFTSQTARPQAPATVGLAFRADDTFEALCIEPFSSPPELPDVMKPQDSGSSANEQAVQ

What was measured:
[1] = molecular target: T1, T7-tagged SOCS6 SH2 domain mutant R407K (mouse) (UniProt Q9JLY0); experiment: co-IP; anti-T7 antibody immunoprecipitates of HeLa cells transiently expressing T7-tagged wildtype or mutant SOCS6; Western blotting with antibodies to Cas, ElonginB and T7
T1 sequence: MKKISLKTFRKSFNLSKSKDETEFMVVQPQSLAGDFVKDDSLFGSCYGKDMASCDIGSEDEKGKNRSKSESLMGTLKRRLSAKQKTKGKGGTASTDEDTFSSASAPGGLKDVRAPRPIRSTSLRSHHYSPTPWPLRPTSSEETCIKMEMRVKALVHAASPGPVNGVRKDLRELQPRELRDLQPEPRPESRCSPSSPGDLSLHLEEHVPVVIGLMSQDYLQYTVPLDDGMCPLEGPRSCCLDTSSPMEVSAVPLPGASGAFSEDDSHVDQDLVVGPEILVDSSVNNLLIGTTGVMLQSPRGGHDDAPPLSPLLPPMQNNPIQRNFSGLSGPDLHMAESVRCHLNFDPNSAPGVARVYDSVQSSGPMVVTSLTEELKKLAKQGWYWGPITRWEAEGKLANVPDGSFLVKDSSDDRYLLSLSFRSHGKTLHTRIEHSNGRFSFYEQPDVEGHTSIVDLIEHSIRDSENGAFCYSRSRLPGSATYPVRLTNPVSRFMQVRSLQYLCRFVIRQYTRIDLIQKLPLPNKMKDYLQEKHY

[2] = molecular target: T2, T7-tagged wildtype SOCS6 (suppressor of cytokine signaling 6) (mouse) (UniProt Q9JLY0); experiment: as above
T2 sequence: T1 sequence with K407R

[3] = molecular target: T1, T7-tagged SOCS6 SH2 domain mutant R407K (mouse); experiment: as above; remark: listed apart in the source
[4] = molecular target: T2, T7-tagged wildtype SOCS6 (suppressor of cytokine signaling 6) (mouse); experiment: as above; remark: listed apart in the source
[5] = molecular target: T3, HA-tagged Cas (mouse) (UniProt Q61140); experiment: co-IP; HeLa cells co-transfected with mCherry constructs, pSGTSrcYF and pCAGHACas; 2 mM pervanadate for 30 min; TX100 lysis buffer; immunoprecipitation with rabbit anti-HA and protein A beads; blots with anti-HA or anti-mCherry
T3 sequence: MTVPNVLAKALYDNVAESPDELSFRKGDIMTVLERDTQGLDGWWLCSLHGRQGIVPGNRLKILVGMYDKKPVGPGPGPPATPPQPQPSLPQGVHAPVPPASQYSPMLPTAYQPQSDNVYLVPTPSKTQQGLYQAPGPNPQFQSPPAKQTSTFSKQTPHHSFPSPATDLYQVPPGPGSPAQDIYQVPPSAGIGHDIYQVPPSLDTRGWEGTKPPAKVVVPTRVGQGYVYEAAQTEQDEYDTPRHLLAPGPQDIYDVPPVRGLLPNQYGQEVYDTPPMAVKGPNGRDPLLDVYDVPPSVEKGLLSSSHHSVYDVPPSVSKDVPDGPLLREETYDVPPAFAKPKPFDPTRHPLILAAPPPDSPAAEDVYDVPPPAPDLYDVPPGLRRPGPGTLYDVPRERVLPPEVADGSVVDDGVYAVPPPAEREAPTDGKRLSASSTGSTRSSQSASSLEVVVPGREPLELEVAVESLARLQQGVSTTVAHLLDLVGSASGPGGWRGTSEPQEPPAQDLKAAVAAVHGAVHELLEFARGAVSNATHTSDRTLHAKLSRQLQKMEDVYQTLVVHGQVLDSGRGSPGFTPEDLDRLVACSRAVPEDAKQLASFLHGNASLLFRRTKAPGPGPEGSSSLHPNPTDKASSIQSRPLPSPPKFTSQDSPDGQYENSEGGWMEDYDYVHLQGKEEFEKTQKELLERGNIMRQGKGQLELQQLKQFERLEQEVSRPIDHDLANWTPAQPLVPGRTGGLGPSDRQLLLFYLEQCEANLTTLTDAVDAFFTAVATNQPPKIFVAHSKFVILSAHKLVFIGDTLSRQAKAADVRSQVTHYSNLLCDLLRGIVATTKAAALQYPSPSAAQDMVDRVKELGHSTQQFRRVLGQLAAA

- binding [1]: binds
- binding [2]: binds
Molecule: ElonginB, endogenous (from UniProt Q15370 1-118)

- binding [3]: no binding
- binding [4]: binds
B1: Cas (Crk-associated substrate/p130Cas/BCAR1), endogenous (protein, UniProt P56945 1-870)
chain: MNHLNVLAKALYDNVAESPDELSFRKGDIMTVLEQDTQGLDGWWLCSLHGRQGIVPGNRLKILVGMYDKKPAGPGPGPPATPAQPQPGLHAPAPPASQYTPMLPNTYQPQPDSVYLVPTPSKAQQGLYQVPGPSPQFQSPPAKQTSTFSKQTPHHPFPSPATDLYQVPPGPGGPAQDIYQVPPSAGMGHDIYQVPPSMDTRSWEGTKPPAKVVVPTRVGQGYVYEAAQPEQDEYDIPRHLLAPGPQDIYDVPPVRGLLPSQYGQEVYDTPPMAVKGPNGRDPLLEVYDVPPSVEKGLPPSNHHAVYDVPPSVSKDVPDGPLLREETYDVPPAFAKAKPFDPARTPLVLAAPPPDSPPAEDVYDVPPPAPDLYDVPPGLRRPGPGTLYDVPRERVLPPEVADGGVVDSGVYAVPPPAEREAPAEGKRLSASSTGSTRSSQSASSLEVAGPGREPLELEVAVEALARLQQGVSATVAHLLDLAGSAGATGSWRSPSEPQEPLVQDLQAAVAAVQSAVHELLEFARSAVGNAAHTSDRALHAKLSRQLQKMEDVHQTLVAHGQALDAGRGGSGATLEDLDRLVACSRAVPEDAKQLASFLHGNASLLFRRTKATAPGPEGGGTLHPNPTDKTSSIQSRPLPSPPKFTSQDSPDGQYENSEGGWMEDYDYVHLQGKEEFEKTQKELLEKGSITRQGKSQLELQQLKQFERLEQEVSRPIDHDLANWTPAQPLAPGRTGGLGPSDRQLLLFYLEQCEANLTTLTNAVDAFFTAVATNQPPKIFVAHSKFVILSAHKLVFIGDTLSRQAKAADVRSQVTHYSNLLCDLLRGIVATTKAAALQYPSPSAAQDMVERVKELGHSTQQFRRVLGQLAAA

- binding [5]: binds
B2: mCherry-SOCS6 (protein, UniProt Q9JLY0 1-533)
chain: T1 sequence with K407R
